In the supplement of paper PMC12067230:
This is a noisy data set.

B1: library; a variant is named by its letters at X, in order (parent)
chain: EASNCFAIRHFENKFAVETLICXXXXXXXX
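Also: [psi-pin-] Saccharomyces cerevisiae expressing SupN fusions, induced by 100 µM Cu2SO4, selected 7 d at 30 °C without adenine and uracil, scored by deep sequencing of output versus input.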

Variants of: B1
Test: amyloid nucleation score relative to library mode (yeast Sup35 reporter selection) (log enrichment difference); higher = more amyloid nucleation; sequences are the first 22 residues of the Bri2 peptide extended by up to 12 random residues
Conditions: random library (experiment): 1;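 active = nucleation score significantly above 0 at FDR 0.05; inactive = not significantly above 0 or absent from output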
Procedure: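 Random C-terminal extensions of the 22-aa Bri2 peptide by 12 NNK codons; premature stops give shorter extensions. Peptides were fused to the Sup35 nucleation domain in S. cerevisiae [psi-pin-] and selected on -ADE-URA plates for 7 d at 30 °C. The nucleation score is log(output/input), centred to the mode of each of 3 independent libraries (1 input, 3 technical output replicates), with duplicates merged. Sequences absent from the output ('random_non_nuc') were imputed with the library mode value, so they are given as censored (<). Nucleators are scores significantly >0 at FDR 0.05.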
In the case of KAEDTLMQ, the amyloid nucleation score is reported as “inactive”. For AAESPSPT, the amyloid nucleation score was “inactive”. In the case of YAFCCMIV, the amyloid nucleation score is reported as 0.376. For TAGRPTVA, the amyloid nucleation score was “inactive”. In the case of LAKLMRRS, the amyloid nucleation score is reported as “inactive”. In the case of KALSCQRM, the amyloid nucleation score is reported as “inactive”. With IALVSCIS the amyloid nucleation score was -0.0935. With DAMGGKQK the amyloid nucleation score was “inactive”. In the case of IAMNGLFR, the amyloid nucleation score is reported as “inactive”. With RAQHGAII the amyloid nucleation score was “inactive”. Variant FAQSWRPA has an amyloid nucleation score of 3.47. For PARGWYVN, the amyloid nucleation score was “inactive”. Variant CASPKYGK has an amyloid nucleation score of 5.99. Work on LCAHSPCK yielded an amyloid nucleation score of 5.84. YCCRSLGP gave an amyloid nucleation score of 7.03. In the case of VCGDMGRV, the amyloid nucleation score is reported as 7.3. For VCKPLGLL, the amyloid nucleation score was 3.87. For VCMVFGCI, the amyloid nucleation score was “inactive”. With YCRWFKKL the amyloid nucleation score was “inactive”. For VDEMVYSG, the amyloid nucleation score was “inactive”. For HDGSKWRA, the amyloid nucleation score was “inactive”. In the case of WDLWPICF, the amyloid nucleation score is reported as “inactive”. With HDRYYVRV the amyloid nucleation score was “inactive”. With ADWGDNSA the amyloid nucleation score was “inactive”. Variant DEAKFDLH has an amyloid nucleation score of 3.2. In the case of KECRQKKR, the amyloid nucleation score is reported as 0.887. For AEGMFHPA, the amyloid nucleation score was “inactive”. For VELKCCTT, the amyloid nucleation score was 4.5. RELVSYRP gave an amyloid nucleation score of 4. For EEPTGLRP, the amyloid nucleation score was -0.219. For LEYLGVAD, the amyloid nucleation score was “inactive”. In the case of IEYVELVA, the amyloid nucleation score is reported as “inactive”. MFHPNSQY showed an amyloid nucleation score of 4.15. Work on NFIYCRFD yielded an amyloid nucleation score of 4.89. With VFKFNPGV the amyloid nucleation score was 3.34. In the case of WFRLRHGR, the amyloid nucleation score is reported as “inactive”. For TFRSYSSL, the amyloid nucleation score was 2.91. With PGDVCVWH the amyloid nucleation score was “inactive”. In the case of AGQGSVSI, the amyloid nucleation score is reported as “inactive”. In the case of VGREDTDY, the amyloid nucleation score is reported as “inactive”. Work on LGSVLGQD yielded an amyloid nucleation score of 7.26. For DGTALLDR, the amyloid nucleation score was “inactive”. In the case of KGYCRCII, the amyloid nucleation score is reported as “inactive”. For GHAYRTRG, the amyloid nucleation score was “inactive”. For THCPFRRC, the amyloid nucleation score was “inactive”. In the case of CHEASAKE, the amyloid nucleation score is reported as “inactive”. With GHLMWARM the amyloid nucleation score was “inactive”. LICDFRVG showed an amyloid nucleation score of 6.05. With YIELRDSN the amyloid nucleation score was 5.36. With LIFLPSWS the amyloid nucleation score was “inactive”. With YIIWHSFR the amyloid nucleation score was “inactive”. With CIRGLCGN the amyloid nucleation score was 4.73. LIRGSRET showed an amyloid nucleation score of 2.95. For RKFPSWEC, the amyloid nucleation score was “inactive”. Work on RKLFDCLV yielded an amyloid nucleation score of -0.0479. For VKLIRGQE, the amyloid nucleation score was “inactive”. With GKTIGGRR the amyloid nucleation score was “inactive”. ELFKGIRP gave an amyloid nucleation score of 2.12. For RLGMADME, the amyloid nucleation score was “inactive”. In the case of VLLERPCG, the amyloid nucleation score is reported as “inactive”. With VLMCRVYI the amyloid nucleation score was “inactive”. For HLRSWPGE, the amyloid nucleation score was “inactive”. In the case of VLSERRWF, the amyloid nucleation score is reported as “inactive”. With TLSLLRNG the amyloid nucleation score was “inactive”. VLSNHPYA gave an amyloid nucleation score of 5.02. With DLSRVKRV the amyloid nucleation score was “inactive”. For CLVLPVSP, the amyloid nucleation score was 4.93. In the case of LLWYCYNW, the amyloid nucleation score is reported as “inactive”. With RMCCRSWL the amyloid nucleation score was “inactive”. For RMESWSRS, the amyloid nucleation score was 0. In the case of AMKVLFEI, the amyloid nucleation score is reported as “inactive”. Work on CMNKGQPK yielded an amyloid nucleation score of 1.89. With LMRNLCAK the amyloid nucleation score was “inactive”. For QMSRMLSG, the amyloid nucleation score was “inactive”. In the case of WMVSRLKV, the amyloid nucleation score is reported as “inactive”. In the case of VNGLPSFA, the amyloid nucleation score is reported as “inactive”. Work on LNLPGLSS yielded an amyloid nucleation score of 6.02. In the case of GNSQKTDM, the amyloid nucleation score is reported as “inactive”. For VPGGQLVR, the amyloid nucleation score was “inactive”. For EPIGDQAT, the amyloid nucleation score was “inactive”. In the case of LPLCHDFS, the amyloid nucleation score is reported as 8.39. Variant DPLCRVFG has an amyloid nucleation score of 0.498. Work on PQLAGVLL yielded an amyloid nucleation score of -0.071. With FQRRYAIK the amyloid nucleation score was “inactive”. In the case of PQTIRWAR, the amyloid nucleation score is reported as “inactive”. FRASEGTS showed an amyloid nucleation score of 0.04. For NRHSQNML, the amyloid nucleation score was -0.211. With FRKMWQCG the amyloid nucleation score was “inactive”. In the case of IRMYFNPC, the amyloid nucleation score is reported as “inactive”. For RRPVRRRE, the amyloid nucleation score was “inactive”. With LRQTKPLV the amyloid nucleation score was “inactive”. In the case of NRSFVVYD, the amyloid nucleation score is reported as “inactive”. In the case of FRSRLIPE, the amyloid nucleation score is reported as 2.28. In the case of LRTPTRGA, the amyloid nucleation score is reported as “inactive”. In the case of IRVCCPTN, the amyloid nucleation score is reported as 0.506. In the case of MRVRVSFL, the amyloid nucleation score is reported as “inactive”. For ARVWQVAT, the amyloid nucleation score was “inactive”. CRWCATEL showed an amyloid nucleation score of 6.65. With NRWPCYSW the amyloid nucleation score was “inactive”. With RSAMGTLG the amyloid nucleation score was “inactive”. Variant VSCMWGGA has an amyloid nucleation score of 7.73. In the case of VSEGVLDG, the amyloid nucleation score is reported as “inactive”. Variant LSEMGQYF has an amyloid nucleation score of 2.11. MSFHNSND gave an amyloid nucleation score of 8.59. For VSFRWSYA, the amyloid nucleation score was 7.1. Work on VSFTGLCT yielded an amyloid nucleation score of 6.15. CSGGWARS showed an amyloid nucleation score of 8.93. In the case of VSGWMSKL, the amyloid nucleation score is reported as “inactive”. For RSIGRVFR, the amyloid nucleation score was “inactive”. In the case of FSIKQNMN, the amyloid nucleation score is reported as 2.21. GSIRVGYP showed an amyloid nucleation score of 5.14. In the case of VSKGQGRV, the amyloid nucleation score is reported as -0.154. With GSLAARAQ the amyloid nucleation score was 0.288. For RSLRRRFC, the amyloid nucleation score was -0.412. For ESLSLRGM, the amyloid nucleation score was “inactive”. Work on WSMGIINE yielded an amyloid nucleation score of 4.09. DSSRLFCS showed an amyloid nucleation score of 7.52. Variant LSSSGLTD has an amyloid nucleation score of -0.0664. For NSSYSISY, the amyloid nucleation score was “inactive”. Variant WSTVESTL has an amyloid nucleation score of 4.56. With FSTVSGQY the amyloid nucleation score was 7.98. With TSVDCWTR the amyloid nucleation score was “inactive”. In the case of ASVHCPCS, the amyloid nucleation score is reported as “inactive”. With ASVNHFLT the amyloid nucleation score was “inactive”. Work on WSVVRTAR yielded an amyloid nucleation score of 5.79. In the case of ISWSTSRD, the amyloid nucleation score is reported as 4.99. With VSWTLSLI the amyloid nucleation score was “inactive”. Variant RSYEYNML has an amyloid nucleation score of 0.754. LSYGGNYF showed an amyloid nucleation score of 6.58. With TTALNRYR the amyloid nucleation score was “inactive”. For ATLGVVVS, the amyloid nucleation score was “inactive”. In the case of VTQRATAW, the amyloid nucleation score is reported as “inactive”. With NTRNAVSA the amyloid nucleation score was “inactive”. In the case of PTSLRLAR, the amyloid nucleation score is reported as 0.674. With CTVWYAAR the amyloid nucleation score was 6.96.
